# Data published in the supplement of paper PMC10126150.
# Values marked as one replicate rest on one cluster of the flow cell; about a third of the high ones do not repeat.
# Tested on: ATP
# Test: switch fluorescence ratio, 500 uM ATP over buffer (Cy3 cluster intensity, sum of 5 cycles each) (fold (ratio)); higher = stronger signal-on switching upon ATP binding; sequences stand for … in TCGTCGGCAGCGTCAGATGTGTATAAGAGACAGTTTTTTTTTTTTTTTTTTTTTTTTT…TC
# Conditions: aptamer strand: ATP DNA aptamer (quencher-CACCTGGGGGAGTATTGCGGAGGAAGG + anchor), 100 nM annealed; ATP concentration: 500 uM; one replicate
# In short: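 The fluorescence ratio divides summed target-cycle Cy3 intensity by summed buffer-cycle Cy3 intensity for each cluster and is averaged per switch-domain sequence. Cy3-labelled switching-strand clusters on a modified Illumina MiSeq flow-cell were annealed to 100 nM quencher-labelled ATP aptamer, then imaged in selection buffer and again after 15 min with 500 uM ATP at 22 °C. Five such cycles were run, with NaOH stripping and re-annealing between them, and clusters outside 100-1000 RFU were excluded.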
# 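Further: ATP exposure 15 min at 22 °C before imaging.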
row,Sequence,switch fluorescence ratio
1,CAAGGCTATT,1.05
2,CAAGGGATGG,1.05
3,CAAGGGTGTA,1.05
4,CAAGGTACGT,1.06
5,CAAGGTACTG,1.04
6,CAAGGTAGTT,1.01
7,CAAGTCTCTT,1.03
8,CAAGTGCCGA,1.01
9,CAAGTGGACT,1.01
10,CAAGTGTCGC,1.01
11,CAAGTTAGAG,0.984
12,CAAGTTAGGA,1.02
13,CAAGTTGAAT,1.01
14,CAAGTTGCGT,0.948
15,CAATACTACA,1.49
16,CAATAGGTT,1.01
17,CAATAGTACG,0.986
18,CAATATGAGG,0.985
19,CAATATTTAT,1.02
20,CAATCAATTA,1.03
21,CAATCATCCC,1.02
22,CAATCGACCC,1.93
23,CAATCGCTCG,0.969
24,CAATCGCTTC,1.39
25,CAATGACTTG,0.953
26,CAATGAGCGA,1.03

row,Sequence,switch fluorescence ratio
1,CAATGATGAG,1.02
2,CAATGCCTAT,1.03
3,CAATGGACCC,1.04
4,CAATGGATGC,1.1
5,CAATGGGTCC,1.03
6,CAATGGTCGG,1.01
7,CAATGTTAT,0.997
8,CAATTACTTG,1.01
9,CAATTCCATT,0.97
10,CAATTCGTCC,1.01
11,CAATTGTTCG,1.03
12,CAATTTAA,1.09
13,CACAAAATCA,1.02
14,CACAAAATTT,1.1
15,CACAACGTTT,1.01
16,CACAAGATAT,1.06
17,CACAATAAGC,1.09
18,CACAATTGCA,1.04
19,CACACAATCT,1.04
20,CACACTAGTC,1.05
21,CACAGCGAGT,1.07
22,CACAGGCGCT,1.01
23,CACAGGGAAG,0.992
24,CACAGTAGT,1.08
25,CACATCACTG,1.48
26,CACATCGGTC,0.977

row,Sequence,switch fluorescence ratio
1,CACATCTGCC,1.08
2,CACATTCGAG,0.981
3,CACATTCGG,1.01
4,CACATTCTCA,1.02
5,CACATTTATT,1.03
6,CACATTTT,0.924
7,CACCAAAGTA,1.01
8,CACCAAATTC,2.09
9,CACCAACTGT,1.15
10,CACCAATTTA,1.04
11,CACCACACTA,1.28
12,CACCACCGAC,1.46
13,CACCCACGGG,1.4
14,CACCCGGCTG,1.33
15,CACCGGCACA,1.52
16,CACCGTGCCT,1.1
17,CACCGTTGTT,1.03
18,CACCTAAAGG,1.03
19,CACCTACATT,1.13
20,CACCTATATT,1.05
21,CACCTTTTTT,1.01
22,CACGAAAAAG,1.11
23,CACGAAAGGG,1.08
24,CACGACCGAA,0.993
25,CACGACGGAC,1.46
26,CACGAGCGCC,1.05

row,Sequence,switch fluorescence ratio
1,CACGAGGTAC,1.04
2,CACGAGTCCG,1.09
3,CACGAGTGCT,0.989
4,CACGATATGC,1.21
5,CACGATTCAA,1.02
6,CACGCCAAAT,1.17
7,CACGCCAAGG,1.32
8,CACGCCGACC,1.42
9,CACGGAGCCA,1.34
10,CACGGGGGCT,1.02
11,CACGGGTATG,0.997
12,CACGGTAAAA,1.08
13,CACGGTAGGA,1.07
14,CACGGTAGGG,1
15,CACGGTTGGA,1.01
16,CACGTAGGCG,1.04
17,CACGTCGTGG,0.978
18,CACTACACGT,1.34
19,CACTACATTG,1.04
20,CACTACCGTC,1.15
21,CACTACGCTT,2.44
22,CACTAGAATT,0.978
23,CACTATCAGC,1.07
24,CACTCACGAA,1.29
25,CACTCGTTTG,0.975
26,CACTCTATGT,1.05

row,Sequence,switch fluorescence ratio
1,CACTCTCTAT,1.05
2,CACTGCTAAA,1.2
3,CACTGGTCTT,0.991
4,CACTGTACCT,1.55
5,CACTGTCGCC,1.02
6,CACTGTCGG,0.966
7,CACTGTGCAA,2.22
8,CACTGTGGCT,0.999
9,CACTTAACGG,1.4
10,CACTTATTCA,1.05
11,CACTTTATGT,1.05
12,CACTTTCCAG,1.06
13,CACTTTCTTG,0.986
14,CACTTTGGCT,0.991
15,CACTTTTCGA,0.982
16,CAGAAAAGTG,1.04
17,CAGAAAGAAA,1.04
18,CAGAAAGAAT,0.989
19,CAGAACTCT,1.01
20,CAGAATATGG,0.929
21,CAGAATGATA,0.992
22,CAGAATGCCC,0.985
23,CAGAATGGGT,0.919
24,CAGAATGTAC,1.04
25,CAGAATTAGT,1.03
26,CAGACACTAG,1.01

row,Sequence,switch fluorescence ratio
1,CAGACAGTGC,1.14
2,CAGACTCGAC,1.09
3,CAGACTGGGT,1
4,CAGAGAAGTG,0.97
5,CAGAGACGCA,1.02
6,CAGAGCAGG,1.02
7,CAGAGGCTAT,1.33
8,CAGAGTACCC,1.06
9,CAGAGTTGG,1
10,CAGATACCGT,1.04
11,CAGATATATG,0.995
12,CAGATATTCC,1.1
13,CAGATGGTT,0.973
14,CAGATTAGCC,0.997
15,CAGATTGACT,0.981
16,CAGATTTCAA,1.02
17,CAGCACAAGG,1.08
18,CAGCATGTGC,1.07
19,CAGCCCGTTA,0.997
20,CAGCCTCGGG,1.04
21,CAGCGTCGGA,0.999
22,CAGCGTCGGC,0.944
23,CAGCGTTCTC,1.16
